Data reported in paper PMC12040169 (PLOS Biology, 2025).
Some of the results follow.

system: T1, C. trachomatis L2/434/Bu expressing GFP (CTL2-GFP); set-up: species or system HeLa; C. trachomatis total inclusion area by high-content imaging, normalised to DMSO; conditions: total inclusion area; 28.5 h, 10 µM; inhibitor
T1 construct: L2/434/Bu GFP intracellular growth in HeLa cells
In short: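 High-content images of fixed, Hoechst-stained infected cultures supply inclusion area and count (growth) plus nuclei number (viability), complementing bulk GFP/resorufin fluorescence. MIC determination is unchanged from the primary assay.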

| SMILES | % of control remaining |
| --- | --- |
| CC(=O)Nc1ccc(OCC(O)Cn2cnc3ncccc3c2=O)cc1 (stereo not drawn) [CBK304541] | 23.4785 |
| Cc1ccnn1CCC(=O)N1CCn2cc(C(F)(F)F)nc2C1 [CBK283912] | 60.2109 |
| O=C(CN(Cc1ccc(Cl)cc1Cl)S(=O)(=O)c1ccccc1)Nc1c(F)cccc1F [CBK265801] | 84.618 |
| CC1Cc2cc(CCC(=O)N3CCCc4c(cnn4C)C3)ccc2O1 (stereo not drawn) [CBK282882] | 94.7049 |
| CC(=O)Nc1ccc(-c2ccc(C(=O)N3CCN(C(=O)OCc4ccccc4)CC3)cn2)cc1 [CBK160185] | 78.6878 |
| CCc1n[nH]c(C(=O)N/N=C/c2cccnc2)c1C [CBK263386] | 101.073 |
| Cc1[nH]c(=O)[nH]c(=O)c1CC(=O)N1CCc2ncc(Cl)cc2C1 [CBK286302] | 85.454 |
| Cc1ccc(/C=N\NC(=O)c2cccc(Cl)c2)s1 [CBK016469] | 14.0795 |
| Cc1ccc(C)c(C2CCCN2C(=O)C2CN(C(=O)C3CCN(C)CC3)C2)c1 (stereo not drawn) [CBK286022] | 110.452 |
| CCCN(C)Cc1ccc(-c2cn(CC(=O)NCc3ccc(OCC(F)F)cc3)nn2)cc1 [CBK166365] | 102.554 |
| CCc1cc(NC[C@@H](O)CO)nc(-c2cc(F)c(F)c(F)c2)n1 [CBK132879] | 120.71 |
| COc1ccnc(N2CCN(C(=O)CCc3ccsc3)CC2)n1 [CBK306350] | 43.9538 |
| Cc1[nH]c2ccccc2c1C(=O)C(=O)Nc1sc(C)c(C)c1C#N [CBK270038] | 75.8465 |
| Cc1ccc(Nc2nc(CSc3nnc(-c4ccccc4)o3)cs2)cc1 [CBK268455] | 113.067 |
| O=C(Nc1ccc(-c2ccccc2C(F)(F)F)s1)C(F)(F)F [CBK099942] | 74.6377 |
| COc1cccc(C(=O)Nc2ccc(-c3noc(-c4ccccn4)n3)cc2)c1 [CBK270055] | 111.906 |
| NC(=O)c1sc2nc(-c3cccnc3)ccc2c1N [CBK023645] | 53.7275 |
| Fc1cccc(F)c1OCCOc1nc(N2CCNCC2)ccc1C(F)(F)F [CBK003977A] | 9.569 |
| Cc1ccc2[nH]cc(CCN3CCC4(CC3)NCCc3c4[nH]c4ccc(OCc5ccccc5)cc34)c2c1 [CBK039342] | 58.9706 |
| C(=C\c1nccnc1OCCc1cccs1)/c1ccccc1 [CBK106873] | 86.4274 |

| SMILES | % of control remaining |
| --- | --- |
| Nc1ccc2c(O)c(C(=O)NCc3ccc(Cl)cc3)c(=O)[nH]c2c1 [CBK017557] | 84.8473 |
| COCCN1CCn2c(nc3cc(NC(=O)c4ccco4)ccc32)C1 [CBK267990] | 97.9289 |
| COc1ccccc1CN1CCC(Cc2ccccc2-c2ccc(C)cc2C)(C(=O)O)CC1 [CBK286419] | 98.3241 |
| O=C(O)CCSc1nc2ccccc2nc1N1CCCC1 [CBK107862] | 129.735 |
| O=c1c2c([nH]c3nc(COc4ccccc4)nn13)CCC2 [CBK288188] | 131.053 |
| COc1ccc(-c2nn(CC(=O)O)cc2/C=C/c2cc(C(F)(F)F)nc(=O)[nH]2)cc1 [CBK287128] | 106.882 |
| CN(C)CCOC(=O)c1ccc(S(=O)(=O)N(C)C)o1 [CBK264273C] | 85.0089 |
| COc1ccc(O[C@@H]2CCCC[C@@H]2N2CCCCC2)cc1 [CBK015661C] | 72.0584 |
| O=C(Nc1ccc(NC(=O)c2ccco2)cc1)c1ccc(N2CCOCC2)c([N+](=O)[O-])c1 [CBK268739] | 98.1189 |
| O=C(C1CCCC1)N1CCCC1c1nnc(-c2ccsc2)o1 (stereo not drawn) [CBK285506] | 80.7387 |
| Cc1cc(Br)ccc1OCC(=O)O/N=C(\N)Cc1ccc([N+](=O)[O-])cc1 [CBK265095] | 91.4289 |
| O=C(NCc1ccncc1)Nc1ccc([N+](=O)[O-])cc1 [CBK264319] | 124.757 |
| COc1cc2c(cc1NC(=O)c1cc(-c3cccnc3)nc3ccc(C)cc13)oc1ccccc12 [CBK267722] | 104.34 |
| Cn1c2c(c3ccccc31)CCOC21CCN(CC2CCCCO2)CC1 (stereo not drawn) [CBK040649] | 130.082 |
| CCC(=O)NNC(=O)c1cc(O)nc2ccccc12 [CBK263495] | 107.496 |
| CC(C)S(=O)(=O)CC(=O)Nc1ccc(C(=O)O)cc1 [CBK020001] | 122.705 |
| COc1ccc(S(=O)(=O)N2CCN(c3ccccc3F)CC2)cc1 [CBK070377] | 100.785 |
| CS(=O)(=O)Nc1ccc(C(=O)Nc2ccc(S(=O)(=O)Nc3nccs3)cc2)cc1 [CBK267856] | 62.6073 |
| Cn1ccnc1C(NC(=O)C1CCCC1)c1ccc(F)c(F)c1 (stereo not drawn) [CBK283784] | 62.7603 |
